Assay results as given in the supplement of paper PMC3724861.
Some of the results follow.

Test system: T1, Caupolican (Caup) homeodomain DNA-binding domain
T1 sequence: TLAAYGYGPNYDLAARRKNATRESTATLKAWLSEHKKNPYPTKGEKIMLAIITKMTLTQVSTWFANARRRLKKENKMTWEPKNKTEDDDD
Assay: PBM E-score (8-mer, recovered from the published 9-mer minima) (E-score (dimensionless, -0.5 to 0.5)); Drosophila protein; higher = stronger relative binding preference, active = 0.31 or more
In short: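 Caup's homeodomain DNA-binding domain (residues 214-303) was produced by in vitro transcription and translation and applied at 100 nM to custom-designed protein binding microarrays. Each value is an enrichment score giving relative binding preference for a short DNA word; higher means stronger. Published 9-mer scores were the minimum of their two constituent 8-mer scores, and the 8-mer values were recovered from those minima. A cutoff of 0.31 marks candidate binding sequences.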

Sequence | PBM E-score
AAAAACCC | inactive: -0.0858
CCTAGAGA | inactive: -0.2
CCTACGAG | inactive: 0.02
GAAAGGTA | inactive: 0.0535
GCGTGCCC | inactive: -0.202
AGATGCTG | inactive: -0.00229
TCAAGCCA | inactive: -0.0609
CTCCGGGC | inactive: -0.224
CCCCGAGC | inactive: -0.179
CTATCAAA | inactive: 0.0453
ACGGAAGG | inactive: -0.115
CTCGGTTA | inactive: -0.0729
TCTTGTAA | active: 0.371
CACCTGGA | inactive: 0.0686
CCATTTAG | inactive: -0.0316
ATCCTGGG | inactive: -0.153
CCGATTAG | inactive: -0.041
AACATAAC | active: 0.318
GACTCGGA | inactive: -0.135
CCATTTCG | inactive: -0.144
CCACCCTA | inactive: -0.0785
GGGCGCCA | inactive: -0.229
CTGTCCAA | inactive: 0.128
GGTCTGAC | inactive: -0.0429

Sequence | PBM E-score
CGAAAGTA | inactive: 0.0221
CTTACTTC | inactive: -0.0287
CTCTGTCA | inactive: 0.0981
CTAAAGGC | inactive: -0.0603
GGGCATAC | inactive: -0.0401
CGTTTTTA | inactive: 0.0882
ATTCAGAC | inactive: 0.0551
CCTAGTGA | inactive: -0.0536
CTACGATC | inactive: 0.0466
ACAATTGC | inactive: 0.162
CGGCGTAG | inactive: -0.0397
ACATTTAC | ≥ 0.275
ACCGGGTC | inactive: -0.0442
ACTGGTAT | inactive: 0.161
CTTTATAA | inactive: 0.0691
ACTCGACA | inactive: 0.202
ATTTCGGG | inactive: -0.0916
AAAGGGAC | inactive: -0.0908
CGCTACGC | inactive: -0.278
ACGCTCAT | ≥ 0.0645
GGTCTGCA | inactive: -0.122
CCACAAAC | inactive: -0.0326
GCCCGTAC | inactive: -0.0447
AGCCCTCA | inactive: -0.12

Sequence | PBM E-score
GTTGAACA | inactive: 0.222
GGTCCCCA | inactive: -0.273
TAAGAAAA | inactive: 0.0363
CGTTCCAA | inactive: 0.0102
CTCAAAAA | inactive: 0.00385
AAACTAGG | inactive: 0.0278
CAGATGCG | inactive: -0.00655
ATTTCAGA | inactive: 0.0637
CGCAACGA | inactive: -0.035
AACTTCGG | inactive: 0.0203
GTTTCATA | inactive: -0.012
AACCGTAA | inactive: -0.0196
GTCTGAAA | inactive: 0.0824
CAGATTAA | inactive: 0.0738
GAATAATC | inactive: 0.0987
CTCGGACC | inactive: -0.171
AGACCCAG | inactive: -0.195
GTCTACAA | inactive: 0.185
ACCCGCCA | inactive: -0.0916
AGCTGCCG | inactive: -0.255
ACCCCAGA | inactive: -0.199
CGATGTAC | active: 0.374
CCGTTCCG | inactive: -0.195
AAGGACGG | inactive: -0.169

Sequence | PBM E-score
ACAAGCAA | active: 0.341
CAGCCTGC | inactive: -0.106
CTAAGCGC | inactive: -0.176
CGAACTTC | inactive: 0.0514
CAAAGCGA | inactive: -0.0671
CCTTGCTC | inactive: -0.0337
CATGATAG | inactive: 0.106
AATTCGTG | inactive: 0.0311
ATGCACAC | inactive: 0.139
GGTCTCAC | inactive: -0.0324
ATGGTACG | inactive: 0.0989
AGATTAAT | inactive: 0.0555
CCCACGGA | inactive: -0.157
AAGGGTGT | inactive: 0.117
TAGAGCTA | inactive: -0.00972
AACGAGAG | inactive: 0.0592
CTTTGTTC | inactive: 0.00543
GGCGCCTA | inactive: -0.202
AATACGGA | inactive: 0.0769
GACACCAA | inactive: 0.119
CTGTCCCC | inactive: -0.0725
ACCGGCCT | inactive: -0.155
AACCTTGA | inactive: 0.0304
CGCCGGAA | inactive: -0.206

Sequence | PBM E-score
CAGCCAGC | inactive: -0.181
ATAAGACC | inactive: 0.0461
ATAATCTA | inactive: 0.155
GGCGTCCC | inactive: -0.263
CGCCCTAA | inactive: -0.205
CATACGTC | inactive: 0.0903
GTCTTAAA | inactive: 0.0416
ACCGCGCC | inactive: -0.215
CACGAAAG | inactive: 0.0338
AGTGAACC | inactive: -0.0258
TATAGCAA | inactive: 0.0621
CAGAAGTC | inactive: 0.00548
CTTTAATC | inactive: 0.00156
CAAGGGAA | inactive: 0.0602
GACTGTCA | inactive: 0.0501
GCCCATAC | inactive: -0.0055
AAATCTAT | inactive: 0.0784
CTGTGATC | inactive: 0.0573
ACCGGAAA | inactive: 0.00834
GGATTTAA | inactive: 0.025
TGGCGGAA | inactive: -0.17
TCCCCCAA | inactive: -0.298
CTGGTGCA | inactive: -0.142
CATGACTC | inactive: 0.0721

Sequence | PBM E-score
CCGGAACC | inactive: -0.196
CAGAGCAA | inactive: 0.104
ATAGGTGA | inactive: 0.0609
CTACTCGC | inactive: -0.13
CCGACCAG | inactive: -0.0451
ATCCCCGC | inactive: -0.131
AAGCCAGG | inactive: -0.171
GATTATAC | inactive: 0.0559
ACGATTGA | inactive: 0.119
CCACCCGA | inactive: -0.108
CGACCGTA | inactive: 0.0138
CAGAGTTA | inactive: -0.0217
GTGCTATA | inactive: 0.102
CTTCAAGC | inactive: -0.173
GAGCCCTC | inactive: -0.223
ACTGCAGG | inactive: -0.0592
GGGTTCCA | inactive: -0.163
AGGCATAT | inactive: 0.0491
ATACCTTG | inactive: 0.128
AAACAGAG | inactive: 0.0593
GGTATACA | inactive: 0.183
